Over roughly 33,000 sequences, “E-score (-0.5 to 0.5)” has its median near -0.01; the highest 2% begin near 0.26. The list shows a part of the results.
Biological target: Ste12 (UniProt P13574)
Experiment: PBM E-score (8-mer binding enrichment) (E-score (-0.5 to 0.5)); higher = stronger / more preferred TF binding; most listed sequences are background and not binding sites
Details: protein concentration: 200 nM; construct: GST-DNA-binding domain
Description: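 Universal 'all 10-mer' protein binding microarrays (Agilent AMADID 015681) probed with GST-tagged S. cerevisiae TFs (full-length or DBD) made by in vitro transcription/translation (PURExpress), about 100-200 nM. Bound TF was detected with fluorescent anti-GST. Each ungapped 8-mer (which stands for itself and its reverse complement) is scored by the PBM enrichment score (E-score), a modified Wilcoxon-Mann-Whitney statistic from -0.5 to +0.5, computed with the Universal PBM Analysis Suite. Scale: above 0.35 generally sequence-specific binding.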

Point of comparison: GCCACACC, “PBM E-score” value 0.0355. Against it:
- CTAGGAAG — lower, -0.167
- TCCTGTCA — lower, 0.00402
- AATTCCCC — higher, 0.0771
- CGTGGTTC — lower, -0.0453
- CACCCGTG — lower, 0.0289
- GTCTATTA — lower, -0.0569
- CTTTAGAC — higher, 0.0447
- CCGGCATA — higher, 0.0364
- CGTCTAAA — higher, 0.145
- GCTCGGCA — lower, -0.0255
- CTGAGTAC — lower, -0.0979
- GGTGCGAC — higher, 0.0544
- CAATCTAC — lower, -0.0868
- GCTCAATA — higher, 0.0645
- CCAGATAC — lower, -0.101
- GCATTATA — lower, 0.00339
- ATAAATAG — higher, 0.0906
- CTGCAGAC — lower, -0.00217
- CAGAATAA — higher, 0.065
- AGGCCTAG — lower, -0.218
- AGTTCAAA — higher, 0.138
- AACCCTAT — lower, -0.00689
- GAAAATCC — lower, 0.0273
- ACGAGATA — lower, -0.0993
- AAGGACCC — lower, -0.122
- AAGACCCT — lower, -0.161
- GCGCACGA — higher, 0.115
- GGATATCA — lower, -0.017
- GTATGGAC — lower, -0.0968
- CACTGCGG — higher, 0.0551
- CAGAGGCC — lower, -0.155
- TCTCCACA — lower, -0.0304
- AACAATGC — higher, 0.0822
- TTATAAAA — higher, 0.268
- GAACTGTC — lower, 0.00291
- ACTCGCAG — lower, -0.0659
- CCTCAGCA — lower, -0.0731
- GAGAGGAC — lower, -0.11
- AGGCGATG — lower, -0.0741
- CGAACTCG — lower, 0.00586
- CCTTAGAG — lower, -0.259
- CCGTCGTA — lower, 0.012
- CCGTAATC — lower, -0.24
- CACTTGGC — lower, -0.0811
- CCTATTCA — lower, -0.0308
- AACTCCCC — lower, -0.0986
- TCTACTCA — lower, 0.0258
- TATTATAA — higher, 0.237
- AGATGTCA — higher, 0.147
- ACGTACAC — lower, -0.0358
- AGCCTCGG — lower, -0.0249
- ACGCGCGT — lower, 0.00813
- AAAGGGCT — lower, -0.18
- CGTACACC — lower, -0.082
- GCCCCGAC — lower, -0.135
- ACGGAGTA — lower, -0.0529
- AGACATTG — higher, 0.0408
- TACTGAAA — higher, 0.358
- GGCTAAGA — lower, -0.148
- AGCGCCGG — higher, 0.0998
- AACCAGTT — higher, 0.227
- CAGGCTCA — lower, -0.119
- GGTGATCA — lower, -0.0395
- GGTTATGA — higher, 0.0703
- AAGCTCCC — lower, -0.24
- ACTTCAAT — higher, 0.174
- ATTGTTGC — lower, 0.0247
- AGTCCAAA — lower, -0.0498
- ATTCCCTA — higher, 0.0512
- AAGCGCCA — lower, -0.163
- CCTTTTCA — lower, -0.0167
- CTGGCGTC — lower, -0.16
- CACCCGAC — lower, 0.0001
- ATGTCGGC — lower, -0.103
- TACCAAGA — higher, 0.122
- CCCCAGCA — lower, -0.0486
- GCAGTTGA — lower, 0.0135
- AACTGCCC — lower, -0.0633
- ACAGTTTC — higher, 0.225
- AGGCCACT — lower, -0.19
- TCGCAGAA — lower, -0.146
- AATAGTCT — higher, 0.0863
- TACACCAA — higher, 0.116
- CCACAGGA — lower, -0.0278
- AAGAGCCC — lower, -0.0789
- CCAAAACG — higher, 0.254
- GAATCTCA — lower, -0.0946
- CTCAGATC — higher, 0.0449
- GAAGGTAA — higher, 0.176
- GGATTTAC — lower, 0.00441
- CCCCACGG — lower, -0.0597
- ACGTGCGG — lower, -0.0466
- CTCTTCTA — lower, -0.143
- ATATCCTA — lower, -0.0384
- GAGAAGGA — lower, -0.169
- CACTATAG — lower, -0.096
- AAAATGGG — lower, -0.033
- CACATTAC — lower, 0.012
- AGCTCGGC — lower, -0.139
- AGCCACTA — lower, -0.0478
- CGGTCATC — lower, -0.164
- GCTACATA — lower, -0.0491
- CCACGACC — lower, -0.274
- AGCTACTC — lower, -0.135
- CTCAGACA — higher, 0.2
- AATCATTG — lower, -0.0499
- TGTGGGAA — lower, -0.0148
- CCGACCTC — lower, -0.183
- GGCGTCGA — lower, -0.0578
- ATACGCAC — higher, 0.0718
- ATCGTCCA — lower, -0.165
- AGCCTGAT — lower, -0.252
- AAGAACTG — lower, -0.0269
- ACTAATGC — lower, -0.0606
- ACGCCGTC — lower, -0.0605
- CGCTACAA — higher, 0.0542
- GTCAATAA — lower, -0.0185
- TATGATGA — higher, 0.131
- ACCTTATG — lower, 0.0329
- CAACTCTA — lower, 0.0135
- CGGAGATC — lower, -0.029
- AAGCGATA — lower, 0.00609
- AATGCTAG — lower, -0.181
- AGTTCGCC — higher, 0.0369
- ATGTGGCA — lower, -0.065
- CGGACGGC — lower, -0.171
- AAGTAATG — higher, 0.24
- ATAAATAC — higher, 0.25
- GTAAAGCA — higher, 0.0765
- CCGGGCCA — lower, 0.0191
- GACCCGTA — lower, -0.101
- CTGAGTGC — lower, -0.0331
- CTACTAAA — lower, -0.0115
- CTTGGTTA — higher, 0.052
- CAGTCGGA — lower, 0.014
- AGATCTAC — lower, -0.00067
- ATAGATGC — lower, -0.131
- GCGGGCGA — higher, 0.0932
- AAGTTTTG — higher, 0.116
- CGAAACGA — higher, 0.205
- ATGCATAC — lower, -0.0221
- CTTCCCCC — lower, -0.111
- ACTCGGCC — lower, -0.0192
- CATGCCAA — lower, 0.0279
- ATGAAAGA — higher, 0.184
- AACTCCCG — lower, -0.0391
- TTACTCAA — higher, 0.0705
- CCACGAAA — higher, 0.125
- CCCTCCCG — higher, 0.0504
- GAGCCATC — lower, -0.0779
- AAAGCGCA — lower, -0.123
- CTAAAATA — higher, 0.181
- CGACTCCG — lower, -0.128
- TGGGCAAA — lower, 0.0174
- AAATAATC — higher, 0.171
- ACGCGTTC — higher, 0.17
- CCTTTACC — higher, 0.102
- CGATTGCG — lower, -0.188
- ACTTGATA — higher, 0.0654
- CTGCGCCC — lower, -0.239
- AGTTGCAG — lower, 0.016
- GTTAGTAA — lower, -0.0275
- AAGACTTG — lower, 0.00623
- ATGTAGTG — lower, -0.0846
- GTTATAAA — higher, 0.218
- CTCACAGA — lower, 0.00059
- CCGGACGC — higher, 0.106
- ACAAAACA — higher, 0.191
- AGTGGTGA — higher, 0.0584
- AGCCATAG — lower, -0.273
- ACAAGATG — lower, -0.114
- ATTCGCAG — higher, 0.158
- ACAAGGAG — lower, -0.0128
- AAGTTAGA — higher, 0.191
- CGAGATAG — lower, -0.213
- TAATCCGA — lower, -0.0463
- CTTAAAAG — lower, -0.0909
- AGCGCGAG — lower, -0.0135
- AAGCCACG — higher, 0.0581
- CCATACAC — higher, 0.167
- AAATTGGC — higher, 0.0478
- AACGGCTG — lower, -0.0742
- ACATCGAG — lower, -0.0993
- TTGTAAAA — higher, 0.315
- GCGTTAAC — lower, -0.106
- CTTTATGC — higher, 0.0465
- ACCTGTAA — higher, 0.0557
- CCCAGTAA — lower, -0.0435
- TCGAAGAA — higher, 0.106
- ACAGAAAT — higher, 0.132
- ACCAGAAA — higher, 0.142
- AGGCTCAT — lower, -0.0542
- CCCTCCAA — lower, -0.0867
- ACTATCTG — lower, -0.104
- AAGTGCAT — lower, -0.201
- CGAATTTA — higher, 0.123
- GCAATGTA — lower, 0.0248
- ACCCCTGC — lower, -0.206
- TAGGCATA — lower, -0.111
- GCATTGGC — lower, -0.302
- CACTTTGA — lower, -0.032
- GAGGGCCC — lower, -0.133
- AAGCGCCT — higher, 0.147
- AACCGCGG — higher, 0.147
- CTGAGTTA — lower, -0.157
- TATTATGA — higher, 0.225
- GCCTGCCC — lower, -0.208
- TGGTACAA — higher, 0.0368
- ACTAATCC — lower, 0.0285
- ATTGGATC — lower, -0.0185
- CGGGAGGC — lower, -0.0823
- ATTTGTAG — higher, 0.127
- ATCACGTA — lower, 0.0346
- CCTACAAC — higher, 0.0568
- GCACGTCA — lower, -0.35
- AGCCGGCA — lower, -0.0302
- CATGTTAG — lower, -0.0804
- ATGATTTG — lower, 0.0048

Source: the supplement of paper PMC3334620
